# Data as given in the RNAGym collection of RNA variant scans (doi:10.7554/elife.90254).
# The source gives no read counts; variants with many changes may rest on few reads.
# B1: LINE1-mini (parent)
# chain: GGCAGAGCUCAACACAGCGUGGCAAAGUGGCUGUGGCUAGACUGCC
# Variants of: B1
# Experiment: self-cleavage, relative activity (ratio to wild type); higher = more cleavage; in vitro, sequencing; the parent is a self-cleaving ribozyme
row,Variant,self-cleavage
1,GGCAGAGAUCAACACAGCGUGGAAAAGUGGCUGUGGCUAGACUGCG [C8A C23A C46G],0.2
2,GGCAGAGCUCAACACUGCGUGGCAAAGUGGCUGGGCCUAGACUCCC [A16U U34G G36C G44C],0
3,GGCAAAGCACAACACAGCGUGACAAAGUGGCUGUGGCUAGACUGCC [G5A U9A G22A],0.07
4,GUCAGAGCUCAGCACAGCGAGGCGAAGUGGCUUUGGCUAGACUGCC [G2U A12G U20A A24G G33U],0.02
5,GGCAGAACUCAACAUAGCGUGGCAAAGUGGCUGUGGCUCGACUGCC [G7A C15U A39C],0.58
6,GGCAGAACUCAACACAGCGUGGCCGAGUGGCUAUGGCUAGACAUCC [G7A A24C A25G G33A U43A G44U],0.08
7,GGCAGAGGCCAACACAGCGCCGCAAAGUGGCUGUGGCGAGACUACC [C8G U9C U20C G21C U38G G44A],0
8,GGCAGGGCUCAACACAGCGUGGCAAAGUGGAAGUCGCUAGACUGCC [A6G C31A U32A G35C],0.07
9,GGCAGAGCUCAACACAGUCUGGCAAAGUGGCUGCGGCUAGACUGCU [C18U G19C U34C C46U],0.06
10,GGCAGACCUCAACACAGCAUGGGAAUGUGGCUGUGGCUAGACUGCU [G7C G19A C23G A26U C46U],0.01
11,GGCAGAACUCAACACAGGGAGGCAAAGUGGCUGUGGCUAGACUGCC [G7A C18G U20A],0.03
12,AGGAGAGCUCAACACAGCGGGGCAAAGUGGCUGUGGCUAGGUUGCC [G1A C3G U20G A41G C42U],0.29
13,GGCAGAGCGCAACACAGCGUGGCAAAGUAGCUCUGGCUAGACUGCC [U9G G29A G33C],0.03
14,GGCAGAGCUCAACAGCGCGUGGAAAAGUGGCUGUGGCUAGACUGCC [C15G A16C C23A],0.02
15,GGCAAAGCUCAACCCAGCGUGGCAAAGUGGCUGUGACUAGACUGCC [G5A A14C G36A],0.08
16,GGCAGAGCUCAACAAAACGUUGCAGAGUGGCUGUGGCUAUACUACC [C15A G17A G21U A25G G40U G44A],0.14
17,GGCAGAGCUCAAAACAGCGUGGCAAUGUGGCUGUAGCUAGACUGUC [C13A A26U G35A C45U],0.01
18,GGCAGAGCUCAACACCGAGUGUCAAAGUGGCCGUGGCUAGACUGCC [A16C C18A G22U U32C],0.03
19,GGCAGAGCUCAACACAGCGUGUCACAUUGGCUGUGGCUAGACUGCC [G22U A25C G27U],0.1

row,Variant,self-cleavage
1,GGCAGAGCUCAACACAGCGUGGCAUAGUAGUUGUGGCUAGCCUGCC [A25U G29A C31U A41C],0.02
2,GGCAGAGCUCCUCACAGGGUAGCAAAGUGGCUGUGGCUAGACUGCC [A11C A12U C18G G21A],0.02
3,GGCAGAGCUCACCUCCGCGUGGCAAAGUGGCUGUGGCUAGACUGGC [A12C A14U A16C C45G],0.04
4,GGCAGAGCUCAACACAGCGUGGCCAAGUGGCUGUCACUAGACUGCC [A24C G35C G36A],0.01
5,GGACGAGCUCAACACGGCGUGGCAAAGUGGCUGUGGCUAUACUGCC [C3A A4C A16G G40U],0.27
6,GGCGGAGCUCAACCCAACGUGGCAAAGUGGCUGUGGCUAGACUGCC [A4G A14C G17A],0
7,GGCAGAGCUCAACACAGCGAAGUCAAGUGGCUGUGGCUAGAGUGCC [U20A G21A C23U A24C C42G],0.1
8,GGAAGAGCUCAACACAGCGUGGCAAAGUCGCUCUGGCUAUACUGCC [C3A G29C G33C G40U],0.1
9,GGCAGAACUCAACACAACAUGGCAAAGUGGCUGUGGCUAGACUGCC [G7A G17A G19A],0.21
10,GACAGAGCUCAACACAGCGUGGUAAAGUGACUGUGGCUAGACUGAC [G2A C23U G30A C45A],1.28
11,GGCAGAGCUCGACACAGAGUGACAAAGUGGCUGUGGCUAGACUGCC [A11G C18A G22A],0.02
12,GGCAGAGCUCAGCACAGCGUGGCAAAGUGGCUGGGGCUAAACUGCC [A12G U34G G40A],0
13,GGCAGAGCUUAACUCAGCGUGCCAAAGUUGCUGUGGCUAGACUGCC [C10U A14U G22C G29U],0.22
14,GGCGGAGCUCAACACAGCGUGUCAAAGUGGUUGUGGCUAGACGGCC [A4G G22U C31U U43G],0
15,GGCAGAGCUCAACACAGCGUGGCAACGUGGCUGUGGAUGGACUGCC [A26C C37A A39G],0.07
16,GGCAGAGCCCAACAGAGCGUGUCAAAGUGGCCGUGGCUAGACAGAU [U9C C15G G22U U32C U43A C45A C46U],0.02
17,GGGAAAGCUUAACACAGCGAGGCAAAGUGGCUGAGGCUAGACUGCG [C3G G5A C10U U20A U34A C46G],0.03
18,GGCAAAGCUCAAGACAGCGUGGCAAAGGGGCUCUGGCUAGCCUGCC [G5A C13G U28G G33C A41C],0.08
19,GGCAGACCUCAACACGGCGAGGCAAAGUGGCUGUGGCUAGGCUGGC [G7C A16G U20A A41G C45G],0.02

row,Variant,self-cleavage
1,GGCAAAGCUCAACACAGCGUGGUAAAGUGGCUGGGGCUAGACAGCC [G5A C23U U34G U43A],0.05
2,GGUAGAGCUCAACACAGCGUGGCAUAGUGUCUGCCGCUAGACUGCC [C3U A25U G30U U34C G35C],0.03
3,GGCAGAGCUCAACACAGCGAGGCAAACUGGCUGUGGCUAGACUGCU [U20A G27C C46U],1.14
4,GGCAGACCUCAACAUAGCGUGGCUAAGUGGCUGUGGCUAGACUGCC [G7C C15U A24U],0.17
5,GGAAGCGCUCAGCACAGCGUGGCAAAGUGGCUGUGUCUAGAGUGCC [C3A A6C A12G G36U C42G],0.03
6,GGCACAGCCCAACACAGCGUGGCAAAAUGGCUGUGGCUAGAUUGCC [G5C U9C G27A C42U],0.03
7,GGUAGAGCUUAACACAGCGUGGCAAAGUGGCAGAGGCUAGACUGCC [C3U C10U U32A U34A],0.04
8,GGCAGAGCUCCACACAGCGUGGCCAAGUGGCUGUGGCUAGACUGCG [A11C A24C C46G],0.01
9,GGACGAGCUCCACACAGCGUGGCAAAGUGGCUGUGGCUAGACUGCC [C3A A4C A11C],0.02
10,GGCUGAGCUCAACACAGCGUGAUAAAGUGGCUGUGGCUAGACUGCC [A4U G22A C23U],0.43
11,GGUAGAGGUCAACACAGCGUGGCAAAGUGGCUGAGGCUAGACUGCC [C3U C8G U34A],0.05
12,GGCAGAGCUCAACACAGCGUGGCAAAGUGGCUGUGGCUGCACUUCU [A39G G40C G44U C46U],0.07
13,GGCAGAGCUUAACGCAGCGUGGCAAAGUGGCCGUGGCUAGAAUACC [C10U A14G U32C C42A G44A],0.02
14,GGCAGAGCUCUAUACAGCGUGGAAAAGUGGCUGUGGCUAGACUGCC [A11U C13U C23A],0.03
15,GGCAGAGGUCAACAAAGCGUGGAAAAGUGGCUGUCGCUAGACUGCC [C8G C15A C23A G35C],0.06
16,GGCAGGGCUCAACACAGUGUGGCAAAGUAACUGUGGCUAGACUGCC [A6G C18U G29A G30A],0.17
17,GGCAGAGCUCAACACAGCGUGGCCAAGUGGCUGUUGCUAGAAUGCC [A24C G35U C42A],0.04
18,GGCAGAGCUCAACACAGCGUGGCAAAAUGGUUGGGGGUAGACUGCA [G27A C31U U34G C37G C46A],0.04
